According to the supplement of paper PMC11417369:
± gives the standard deviation of the averaged measurements. The list shows a part of the results.

tested on: PfAP2-EXP AP2 domain (GST-tagged); test: gcPBM binding intensity (ln(normalized median fluorescence intensity)); higher = stronger DNA binding
How it was run: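 Each value is the highest Masliner-normalised natural-log median intensity across replicate spots of either orientation of a probe. The probes were primer-extended double-stranded 36-bp intergenic genomic sequences on an Agilent 4 × 180k array, alongside negative controls, exposed for 1 h to GST-tagged P. falciparum DNA-binding domains expressed in E. coli. Bound protein was picked up with Alexa488 anti-GST antibody and scanned at 488 nm.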

| Sequence | gcPBM binding intensity (ln) |
| --- | --- |
| AGGTGATTGATATATACACACATACCTATATTTATA [CACACA_site7348] | 8.36 ± 0.35 |
| TGTTTATTTAATAATATTTTTTTTTTTATTATATTA [XGTACX_negctrl_site56] | 8.08 ± 0.58 |
| TTTTTTCTTTTATGTGAAATGTAATATTGTTATATA [GTGCAC_negctrl_site715] | 8.21 ± 0.49 |
| TTATTAAAATATTCTAGTACATATAAAAGGAGAACA [XGTACX_site4374] | 8.9 ± 0.3 |
| ATATAAAGAAAAGGAACACACAAATATATATATATA [CACACA_site463] | 10.1 ± 0.31 |
| ATATATTATTTTAAATGTACTCATAATAGAAATGTC [XGTACX_site40] | 8.53 ± 0.099 |
| CACACAGGTAAAAAGGTGCAGTTGAAATATTCCTCA [GTGCAC_site9730] | 8.63 ± 0.17 |
| AAATAAAAGGTTGAGAGTACATTTTTGTGTATGTAT [XGTACX_site5547] | 8.46 ± 0.4 |
| AAAAAAAAAATACAACAAAGTTAAATAAATAAATAA [GTGCAC_negctrl_site402] | 8.45 ± 0.34 |
| AGCTCTCAAAATTATTCACACGTGTCCTGTTATATA [CACACA_site5415] | 9.26 ± 0.47 |
| ATATTTCATTAATGAACACACAAAGAGGTATATAAA [CACACA_site1519] | 8.93 ± 0.4 |
| ATATTTAAAAATATAGTGCAATTATTCTAATGTGTT | 8.32 ± 0.15 |
| CACGCACGCACATACACACACATACACATATAAATA [CACACA_site6907] | 8.78 ± 0.34 |
| ATGTTGTTCATAAATATATTATTTTTAAATGTACAA [GTGCAC_negctrl_site507] | 8.32 ± 0.36 |
| ATATATTCACGTTAATGTACACATAATAAATTATAT [XGTACX_site5481] | 8.62 ± 0.36 |
| ATATATATTATTGAATGTACATAATTATTTAATAGT [XGTACX_site4971] | 8.76 ± 0.38 |
| GTATTTAGATGATTAACACACATATGTGTATTAATA [CACACA_site6733] | 8.37 ± 0.27 |
| TATTCACTGATATGTTGTACATAAAAAAAATTAAAT [XGTACX_site6128] | 8.5 ± 0.33 |
| AATTATATTGGTTGTAGTACTAAAAGTAAGTTAATG [XGTACX_site33] | 8.69 ± 0.35 |
| TTTTTTATATTGATATTTATTAAATATGAAATGTTA [GTGCAC_negctrl_site405] | 7.97 ± 0.44 |
| TGAAAAAAGAAAAATACACACATATAATATAATATA [CACACA_site2255] | 8.48 ± 0.49 |
| AATAAAATATAAGGGGGTACGGAGAAAGGATACTAT [XGTACX_site7733] | 9.17 ± 0.38 |

| Sequence | gcPBM binding intensity (ln) |
| --- | --- |
| TTATATAAGATATTTCGTACACATTCAAAAATTATG [XGTACX_site7375] | 8.35 ± 0.37 |
| AAAAAAAAAAAAAAAAGTACATATATTATATATATA [XGTACX_site2983] | 8.9 ± 0.099 |
| CATACACCCCAACACACACACACACCCATATATAAT [CACACA_site8097] | 8.82 ± 0.66 |
| GTGCAATATTTATTTTGTACATATTTATCAATAAAC [XGTACX_site8297] | 8.36 ± 0.2 |
| TTATATTTTTACAAGAGTACATATATATATATATAT [XGTACX_site5383] | 10.2 ± 0.31 |
| TCAAACCAGTTGATGTGTACACATATAGTAATAATT [XGTACX_site6014] | 8.79 ± 0.38 |
| TTTATTTGATGAACATGTACAAAAAAACAAAGAACA [XGTACX_site823] | 8.83 ± 0.31 |
| ATTAAATATATTAAATGTACATAATATATATATATA [XGTACX_site5032] | 10 ± 0.23 |
| ACATCGATTTATATTCTGCACTGAAGAAACTACAAC [GTGCAC_site9967] | 8.78 ± 0.13 |
| ATAAAAATAAAATGGACACACATATATACCTATTTG [CACACA_site5761] | 8.5 ± 0.34 |
| TGATATTTTATTATTAAAATATATACATATATATAT [CACACA_negctrl_site1456] | 9.455 ± 0.007 |
| AAGAAAAAAAAAAAAAAAGATACTTTTTTAAAACTA [TGCATGCA_negctrl_site13] | 8.11 ± 0.73 |
| TTGCACAGATTAATCAAAAATTTTAAACCAAATATA [XGTACX_negctrl_site38] | 8.56 ± 0.45 |
| TATTTACACAAAATAAAATATATTATATATATATAT [TGCATGCA_negctrl_site381] | 9.7 ± 0.35 |
| AGAATAGAATAAAAAACACACATTTACAACATTATT [CACACA_site3894] | 8.54 ± 0.52 |
| TATATGGAGAGATATGCACACTGTATGAATGCCCCC [CACACA_site8853] | 10.3 ± 0.33 |
| TATTTATACATAGGTGGTACTACTTTAAACAAAAAA [XGTACX_site5062] | 8.68 ± 0.4 |
| AAATAAATAATATTCACACATAAAAAAAATGGAGTT [CACACA_site4525] | 8.44 ± 0.45 |
| TTTATTCCAGTATTCACACACGAATAACCACATAAC [CACACA_site5104] | 8.68 ± 0.25 |
| TGTATTTATAGCAATACACACATAACAATAAATATA [CACACA_site3328] | 8.27 ± 0.071 |
| TATATAAGAGGAAAAAGTACAGAAAAACAAAGAGAA [XGTACX_site2926] | 9.29 ± 0.45 |
| CTATACATATTATATAGTACTTTATTATTATGACTA [XGTACX_site1382] | 8.45 ± 0.36 |
